According to the supplement of paper PMC8728848:
Some of the results follow.

Tests used:
Assay in all cases: glycan array binding signal (z-score within array); higher = stronger binding
Details in all cases: glycan notation: IUPAC condensed, linker removed
[1] = target: GlcNAc(b1-3)Gal(b1-4)GlcNAc(b1-3)Gal(b1-4)GlcNAc(b1-2)Man(a1-3)[GlcNAc(b1-3)Gal(b1-4)GlcNAc(b1-3)Gal(b1-4)GlcNAc(b1-2)Man(a1-6)]Man(b1-4)GlcNAc(b1-4)GlcNAc
Procedure, shortened: (§1)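 The binding signal is a Z-score computed within each array and averaged over linkers. Arrays of the same protein sequence at different concentrations or buffers were also averaged together. Data originate from 3228 arrays in the Consortium for Functional Glycomics database, kept only where the protein sequence was available.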

[2] = target: GlcNAc(b1-3)Gal(b1-4)GlcNAc(b1-3)Gal(b1-4)GlcNAc(b1-2)Man(a1-3)[GlcNAc(b1-3)Gal(b1-4)GlcNAc(b1-3)Gal(b1-4)GlcNAc(b1-2)Man(a1-6)]Man(b1-4)GlcNAc(b1-4)[Fuc(a1-6)]GlcNAc
Procedure, shortened: as §1

[3] = target: GlcNAc(b1-3)Gal(b1-4)GlcNAc(b1-3)Gal(b1-4)GlcNAc(b1-2)[GlcNAc(b1-3)Gal(b1-4)GlcNAc(b1-3)Gal(b1-4)GlcNAc(b1-6)]Man(a1-6)[GlcNAc(b1-3)Gal(b1-4)GlcNAc(b1-3)Gal(b1-4)GlcNAc(b1-2)Man(a1-3)]Man(b1-4)GlcNAc(b1-4)[Fuc(a1-6)]GlcNAc
Procedure, shortened: as §1

[4] = target: GlcNAc(b1-3)Gal(b1-4)GlcNAc(b1-3)Gal(b1-4)GlcNAc(b1-3)Gal(b1-4)GlcNAc(b1-2)Man(a1-3)[GlcNAc(b1-3)Gal(b1-4)GlcNAc(b1-3)Gal(b1-4)GlcNAc(b1-3)Gal(b1-4)GlcNAc(b1-2)Man(a1-6)]Man(b1-4)GlcNAc(b1-4)GlcNAc
Procedure, shortened: as §1

[5] = target: GlcNAc(b1-3)Gal(b1-4)GlcNAc(b1-3)Gal(b1-4)GlcNAc(b1-3)Gal(b1-4)GlcNAc(b1-2)Man(a1-3)[GlcNAc(b1-3)Gal(b1-4)GlcNAc(b1-3)Gal(b1-4)GlcNAc(b1-3)Gal(b1-4)GlcNAc(b1-2)Man(a1-6)]Man(b1-4)GlcNAc(b1-4)[Fuc(a1-6)]GlcNAc
Procedure, shortened: as §1

[6] = target: GlcNAc(b1-3)Gal(b1-4)GlcNAc(b1-3)Gal(b1-4)GlcNAc(b1-3)Gal(b1-4)GlcNAc(b1-2)[GlcNAc(b1-3)Gal(b1-4)GlcNAc(b1-3)Gal(b1-4)GlcNAc(b1-3)Gal(b1-4)GlcNAc(b1-6)]Man(a1-6)[GlcNAc(b1-3)Gal(b1-4)GlcNAc(b1-3)Gal(b1-4)GlcNAc(b1-3)Gal(b1-4)GlcNAc(b1-2)Man(a1-3)]Man(b1-4)GlcNAc(b1-4)[Fuc(a1-6)]GlcNAc
Procedure, shortened: as §1

[7] = target: GlcNAc(b1-3)Gal(b1-4)GlcNAc(b1-3)Gal(b1-4)GlcNAc(b1-3)Gal(b1-4)GlcNAc(b1-3)Gal(b1-4)GlcNAc(b1-2)Man(a1-3)[GlcNAc(b1-3)Gal(b1-4)GlcNAc(b1-3)Gal(b1-4)GlcNAc(b1-3)Gal(b1-4)GlcNAc(b1-3)Gal(b1-4)GlcNAc(b1-2)Man(a1-6)]Man(b1-4)GlcNAc(b1-4)GlcNAc
Procedure, shortened: as §1

[8] = target: GlcNAc(b1-3)Gal(b1-4)GlcNAc(b1-3)Gal(b1-4)GlcNAc(b1-3)Gal(b1-4)GlcNAc(b1-3)Gal(b1-4)GlcNAc(b1-2)Man(a1-3)[GlcNAc(b1-3)Gal(b1-4)GlcNAc(b1-3)Gal(b1-4)GlcNAc(b1-3)Gal(b1-4)GlcNAc(b1-3)Gal(b1-4)GlcNAc(b1-2)Man(a1-6)]Man(b1-4)GlcNAc(b1-4)[Fuc(a1-6)]GlcNAc
Procedure, shortened: as §1

[9] = target: GlcNAc(b1-3)Gal(b1-4)GlcNAc(b1-3)Gal(b1-4)GlcNAc(b1-3)Gal(b1-4)GlcNAc(b1-3)Gal(b1-4)GlcNAc(b1-2)[GlcNAc(b1-3)Gal(b1-4)GlcNAc(b1-3)Gal(b1-4)GlcNAc(b1-3)Gal(b1-4)GlcNAc(b1-3)Gal(b1-4)GlcNAc(b1-6)]Man(a1-6)[GlcNAc(b1-3)Gal(b1-4)GlcNAc(b1-3)Gal(b1-4)GlcNAc(b1-3)Gal(b1-4)GlcNAc(b1-3)Gal(b1-4)GlcNAc(b1-2)Man(a1-3)]Man(b1-4)GlcNAc(b1-4)[Fuc(a1-6)]GlcNAc
Procedure, shortened: as §1

[10] = target: GlcNAc(b1-3)Gal(b1-4)GlcNAc(b1-3)Gal(b1-4)GlcNAc(b1-3)GalNAc
Procedure, shortened: as §1

[11] = target: GlcNAc(b1-3)Gal(b1-4)GlcNAc(b1-3)GalNAc
Procedure, shortened: as §1

[12] = target: GlcNAc(b1-3)Gal(b1-4)GlcNAc(b1-3)[GlcNAc(b1-3)Gal(b1-4)GlcNAc(b1-3)]GalNAc
Procedure, shortened: as §1

[13] = target: GlcNAc(b1-3)Gal(b1-4)GlcNAc(b1-6)[Gal(b1-3)]GalNAc
Procedure, shortened: as §1

[14] = target: GlcNAc(b1-3)Gal(b1-4)GlcNAc(b1-6)[GlcNAc(b1-3)Gal(b1-3)]GalNAc
Procedure, shortened: as §1

[15] = target: GlcNAc(b1-3)Gal(b1-4)GlcNAc(b1-6)[GlcNAc(b1-3)]Gal(b1-4)GlcNAc
Procedure, shortened: as §1

[16] = target: GlcNAc(b1-3)GalNAc
Procedure, shortened: as §1

[17] = target: GlcNAc(b1-3)Man
Procedure, shortened: as §1

[18] = target: GlcNAc(b1-3)[GlcNAc(b1-4)][GlcNAc(b1-6)]GlcNAc
Procedure, shortened: as §1

[19] = target: GlcNAc(b1-3)[GlcNAc(b1-6)]Gal(b1-4)GlcNAc
Procedure, shortened: as §1

[20] = target: GlcNAc(b1-3)[GlcNAc(b1-6)]GalNAc
Procedure, shortened: as §1

[21] = target: GlcNAc(b1-4)Gal(b1-4)GlcNAc
Procedure, shortened: as §1

[22] = target: GlcNAc(b1-4)GlcNAc
Procedure, shortened: as §1

[23] = target: GlcNAc(b1-4)GlcNAc(b1-4)GlcNAc
Procedure, shortened: as §1

B1: Cp ZmpB (Clostridium perfringens), Q0TR08 (protein)
chain: MNKRKIAAIILATMITNLSATTIDVLAQELNTKNNSKVEVSHDDESHQARVSKFDLYNSDKLDAYNQEFQVSRSNIKSINNNGGKYNSSTIDKAIDGNLETHWETGKPNDANFTNEVVVTFNEITNIDRIVYSARRDSARGKGFAKEFEIYASLKDEGDDFNLVSSGEYTESTRDLVEIKFNPTDFKRLKFKFKKADQNWASAAEFMFYKEDKLNEKFNGLFTDSSMNKVSEEFNTLEKLNAFENELKDHPIYDLYKEGLNNARAILTETSENPTKATLGQITYNLNDDYNNQYRMPYKNIKAIKNNGRHYAAQNIEKAIDNDVNTYWETGTLNSSSFNNEVEVEFNDLVTLDRIVYGSRQSDLKGFAEEVYIYASRTSKGDTYKLVATGAHEATKGLVEAKFEPTEFKRVKFKFKKSKQNSATLNELMFYKPDEVYSSIPKLFTDGTMSELSEEFNSLEKINAFKEKAKNHPLYNDFNETIELAESLISNPRKEDVLELEMRGDSISEAKKRKVWNFQDWQITGLSARAGDKITVYVDVAEGDPTPTLLYKQSLTQHGGATSFQLKPGKNEITIPEINYESNGIPKDVIQGGDLFFTNYKSDSQKRAPKVRIEGASKYPVFILGKSDENEVMKELEAYVEKIKAEPKTTPNIFAVSSNKSLEFVQATYALDWYKKNNKTPKYTAEQWDQYIADAMGFWGFDNSKDVNSDFNFRIMPMVKNLSGGAFMNAGNGVIGIRPGNQDAILAANKGWGVAHELGHNFDTGGRTIVEVTNNMMPLFFESKYKTKTRITDQNIWENNTYPKVGLDDYSNNELYNKADSTHLAQLAPLWQLYLYDNTFYGKFERQFRERDFGNKNREDIYKSWVVAASDAMELDLTEFFARHGIRVDDKVKEDLAKYPKPDKKIYYLNDLAMNYKGDGFTENAKVSVSTSGSNGNIKLSFSVDDENKDNILGYEIRRDGKYVGFTSNDSFVDTKSNLDEDGVYVVTPYDRKLNTLNPIEVNALQPTLSVNPVITLALGEEFNEEEYIVAKDIKGNSLSESVKVKSSNVNTSKVGEYEVLYSLEDSKGNEYTKTSKVNVVSRKEYMSDLTPKQSSNGWGTVRKDKSISGGVIGLTRDGDFVDYNKGLGLHSNAEYVYDLEGKDYDYFESYVGVDKAMSSRPASSVIFKVLVDGEEKFNSGVMRSTTPQKYVKVDVKNAKELKLIVNDAGDGDSSDHASFGDAKLATLSSKPIIKGENLAYSMDEKVDLMKGITATDIEDGNITSKVQIKSSDFVEGKSGIFTVVYSVTDSDGLTSECSRTIAVTDKETQLSDLNWKSATIGSGSVRKDRAVSGNQIRLLNEDNSVETFAKGIGTHSYSEIVYNSEGYDIFDTWVGIDRHVADKKVSSVKFKVYVDGELKAETDVMRIDTPKKRLVVDVRNSKEIKLVVDVADNGNNWDHADWADAKFRNLAEYDASELNKAIEEAKKLDLNNYTEESSEALKNAISKGEEALLSKDKETINSALEELNKEMNSLVKVDLNAVINIPDKYLLKSIQNQLNKTGDITLGDMYSLTTLTLSGVEDLTGLENAKNLETLNMDYNEVKDLRPLSKLKKLNTLNAQEQFIAAGELKPSNGKVIGDSKVYNREGKNVAKTIRVVDKNGNTILEQDAKDEFTINTKDLSSGLYGVHVLFEDEGFSGVMFYLFNV
[1]
  glycan array binding signal (z-score): -0.216
[2]
  glycan array binding signal (z-score): -0.131
[3]
  glycan array binding signal (z-score): -0.163
[4]
  glycan array binding signal (z-score): -0.275
[5]
  glycan array binding signal (z-score): -0.089
[6]
  glycan array binding signal (z-score): -0.173
[7]
  glycan array binding signal (z-score): -0.365
[8]
  glycan array binding signal (z-score): -0.456
[9]
  glycan array binding signal (z-score): 0.917
[10]
  glycan array binding signal (z-score): -0.106
[11]
  glycan array binding signal (z-score): -0.04
[12]
  glycan array binding signal (z-score): -0.387
[13]
  glycan array binding signal (z-score): -0.338
[14]
  glycan array binding signal (z-score): -0.206
[15]
  glycan array binding signal (z-score): 0.448
[16]
  glycan array binding signal (z-score): 0.23
[17]
  glycan array binding signal (z-score): 0.057
[18]
  glycan array binding signal (z-score): -0.302
[19]
  glycan array binding signal (z-score): -0.215
[20]
  glycan array binding signal (z-score): -0.207
[21]
  glycan array binding signal (z-score): -0.189
[22]
  glycan array binding signal (z-score): 0.082
[23]
  glycan array binding signal (z-score): -0.137
